Measured values from PubChem BioAssay AID1030 (National Center for Advancing Translational Sciences (NCATS), 2008).
Among all 220,000 compounds or so, about 16,000 (7.3%) were called active. The shares of active, inactive and inconclusive entries below differ from those in the screen. The call rests on the fitted dose curve; in most records, active means well fitted inhibition curve with a large enough effect (not every such curve was filed as active); inconclusive means small, poorly fitted or top-dose-only effect, or another doubt; inactive means no such curve, though single readings can be large or run the other way. Potencies beside an inconclusive call are fits to weak or partial responses and may not hold up.

Molecular target: Aldehyde dehydrogenase 1A1 (Homo sapiens) (UniProt P00352)
Assay: qHTS Assay for Inhibitors of Aldehyde Dehydrogenase 1 (ALDH1A1);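 on activity, negative = inhibition: plate controls were no enzyme wells and a reference inhibitor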
Settings: Purified ALDH1A1, NADH fluorescence, propionaldehyde substrate; series mostly up to 75.3 µM; activity, negative = inhibition: at the top concentration
Potency means the concentration at half of the fitted maximal effect; tags describe the fitted curve by direction and shape.

UniProt P00352, sequence (P00352 whole entry, looked up): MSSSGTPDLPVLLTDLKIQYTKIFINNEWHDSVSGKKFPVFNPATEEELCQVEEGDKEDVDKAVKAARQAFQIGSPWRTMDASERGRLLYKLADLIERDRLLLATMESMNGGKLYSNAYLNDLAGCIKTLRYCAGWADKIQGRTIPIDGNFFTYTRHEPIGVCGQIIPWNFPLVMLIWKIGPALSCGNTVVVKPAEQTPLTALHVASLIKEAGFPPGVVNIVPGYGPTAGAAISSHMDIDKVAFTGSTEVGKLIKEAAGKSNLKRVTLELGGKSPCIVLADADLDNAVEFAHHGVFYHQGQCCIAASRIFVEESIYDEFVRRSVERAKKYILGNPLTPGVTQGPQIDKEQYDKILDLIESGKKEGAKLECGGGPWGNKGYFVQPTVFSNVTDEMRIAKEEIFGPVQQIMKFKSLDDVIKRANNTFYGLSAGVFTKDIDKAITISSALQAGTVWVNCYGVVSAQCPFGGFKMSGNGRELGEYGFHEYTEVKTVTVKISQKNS

Potency, active:
[O-]/[N+](=C\c1ccncc1)c1ccccc1 15 µM
CCOc1cc(/C=C2/C(=N)N3OC(C)=CC3=NC2=O)ccc1OC(=O)c1ccco1 10 µM
CCn1c(=S)[nH]c2cc(S(=O)(=O)N3CCCCC3)ccc21 7.08 µM
O=c1[nH]c2ccc(N=Cc3c(O)ccc4cc(Br)ccc34)cc2[nH]1 1 µM
CCCCCn1c(SCCC(C)C)nc2c1c(=O)[nH]c(=O)n2C 22.4 µM
C=CCn1c(O)c(N=NC(=O)CNC(=O)/C=C/c2ccco2)c2ccccc21 10 µM
CS(=O)(=O)c1ccc(Cn2c3c(c4cc(F)cc(F)c42)CCC[C@H]3CC(=O)O)cc1 0.112 µM
COc1ccc(-n2ncc3c(=O)n(Cc4c(F)cccc4Cl)cnc32)cc1 28.2 µM

Potency, inconclusive:
CC(C)CCC(CCN1CCCC1)c1ccc2c(c1)OCO2 (stereo not drawn) 22.4 µM [inhibitor, partial curve]
COc1ccc(-c2cc(C(=O)NCCc3ccccc3)no2)cc1OC 31.6 µM [inhibitor, partial curve]
COc1cc2c(c(OC)c1OC)C(c1ccccc1C)CC(=O)O2 (stereo not drawn) 35.5 µM [inhibitor, partial curve]
CC(=O)Nc1ccc(NC(=O)CSc2ccccn2)cc1 39.8 µM [inhibitor, single point]
CCn1c(-c2cc(-c3ccc(OC(C)C)cc3)nc3ccccc23)n[nH]c1=S 28.2 µM [inhibitor, partial curve]
Cc1c(Cl)cccc1-c1ccc(C(=O)N2CCN(c3ccc([N+](=O)[O-])cc3)CC2)o1 35.5 µM [inhibitor, single point]
O=C(Nc1ccc2ccccc2c1)Nc1ccc2snnc2c1 39.8 µM [inhibitor, single point]
CN1CCCN(C(=O)/C=C/c2ccc(F)cc2)CC1 39.8 µM [inhibitor, single point]
Cc1cc(C)c2nc(-c3ccco3)cc(C(=O)O)c2c1 28.2 µM [inhibitor, partial curve]
Cc1ccc(C(=O)N/C(=C\c2cccs2)C(=O)NCCc2c[nH]c3ccccc23)cc1C 12.6 µM [inhibitor, partial curve]

activity, negative = inhibition, inactive:
CCN(CCCNc1ncnc2nc[nH]c12)c1cccc(C)c1 5.74%
COc1c(Cl)cc(Cl)cc1CNCCO -0.104%
Cc1c(Cl)cccc1NC(=O)CNCc1ccccc1F -0.193%
CC(=O)Nc1cccc(NC(=O)c2ccc([N+](=O)[O-])cc2Cl)c1 -4.82%
CN(C)CCO[C@](C)(c1ccccc1)c1ccccn1 4.14% [at 20.9 µM]
